Assay results as given in patent publication US20250042997A1 (PHYLAXIS BIOSCIENCE, published 2025).

Columns and labels:
[1] = target: T1, human Siglec-8 (full-length, on transfected CHO or 293 cells, or native on human eosinophils) (human, UniProt Q9NYZ4 17-499); experiment: flow cytometry on freshly isolated human eosinophils, tetravalent Fc SDIE format
Text: (§1) The anti-Siglec8 G2 VHH sequence hzG2v14 underwent further modification to minimize binding to siglec-2 (CD22) and other siglec proteins (see, below), reduce potential immunogenicity and optimize manufacturability. Humanized tetravalent Siglec-8 agonist antibodies comprising hzG2v14 (SEQ ID NO: 9), hzG2v47 (SEQ ID NO: 12), hzG2v51 (SEQ ID NO: 17), hzG2v52 (SEQ ID NO: 22), hzG2v53 (SEQ ID NO: 27), hzG2v54 (SEQ ID NO: 32) or hzG2v55 (SEQ ID NO: 37) were linked to an engineered Fe SDIE region (described further in Example 5) via linker 2. Binding to human Siglec-8 on eosinophils was evaluated and compared to that of the afucosylated anti-Siglec-8 2E2 (2E2 Afuc) reference antibody by flow cytometry. Eosinophils were isolated from healthy donor whole blood using the StemCell EasySep™ direct human eosinophil isolation kit, diluted in FACS buffer, added at 10 k/well to a 96-well assay plate and incubated at 4° C. for 20 minutes with a titration series (10-12 point titration, 1:4 dilution) starting at 10 nM of the test articles. Following one wash with FACS buffer, an Alexa Fluor®647 AffiniPure Donkey Anti-Human Fcγ specific secondary antibody (Jackson ImmunoResearch) was added, and cells were incubated for 20 minutes at 4° C. Following one additional wash in FACS buffer, bound antibodies were detected via flow cytometry (NovoCyte 3000). Median fluorescent intensity was calculated using Novoexpress onboard software gating on SSC^high/CCR3⁺ cells. The dissociation constant (Kd) values from these studies are summarized in Table 3 and representative binding data for the tetravalent anti-Siglec8 antibodies comprising hzG2v52 (cx11913) and hzG2v53 (cx11914) is show in FIG. 4A. The pI of the VHH domains as determined using ExPasy are shown in Table 3, with a higher pI generally preferred for manufacturing.

[2] = target: T1, human Siglec-8 (full-length, on …); experiment: flow cytometry on freshly isolated human eosinophils
Text: as §1, with “Following one wash with FACS buffer, an Alexa Fluor®647 AffiniPure Donkey Anti-Human Fcγ specific secondary antibody (Jackson ImmunoResearch) was added, and cells were incubated for 20 minutes at 4° C.” left out, “The dissociation constant (Kd) values from these studies are summarized in Table 3 and representative binding data for the tetravalent anti-Siglec8 antibodies comprising hzG2v52 (cx11913) and hzG2v53 (cx11914) is show in FIG. 4A.” left out

T1 sequence (Q9NYZ4 17-499): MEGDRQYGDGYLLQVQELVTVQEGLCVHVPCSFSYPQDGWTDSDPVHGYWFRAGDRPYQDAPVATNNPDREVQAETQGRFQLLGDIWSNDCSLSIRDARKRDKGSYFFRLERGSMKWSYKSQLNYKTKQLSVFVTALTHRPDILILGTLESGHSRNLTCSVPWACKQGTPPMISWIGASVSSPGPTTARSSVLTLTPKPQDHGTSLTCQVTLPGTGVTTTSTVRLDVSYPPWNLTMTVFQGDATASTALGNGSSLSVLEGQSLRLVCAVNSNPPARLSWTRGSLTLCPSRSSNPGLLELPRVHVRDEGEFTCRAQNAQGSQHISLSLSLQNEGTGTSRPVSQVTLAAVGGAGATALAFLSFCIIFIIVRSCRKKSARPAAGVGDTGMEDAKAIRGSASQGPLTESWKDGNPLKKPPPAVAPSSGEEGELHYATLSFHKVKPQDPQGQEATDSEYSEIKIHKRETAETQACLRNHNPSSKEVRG

| Binder | Kd [1] [nM] | fold higher affinity than the 2E2 Afuc comparator antibody [2] [fold] |
| --- | --- | --- |
| humanized tetravalent Siglec-8 agonist antibody comprising hzG2v14, Fc SDIE (Fc fusion, Homodimer through the Fc; also called cx11769) EVQLLESGGGEVQPGGSLRLSCAASGSISIFSMYVVAWYRQAPGKEREWVAFIQRGGTANYAESAKGRFTISRDNAKNTVYLQMSSLRAEDTAVYYCNYINTDNEIGGPWGQGTLVTVKPGGSGGSEVQLLESGGGEVQPGGSLRLSCAASGSISIFSMYVVAWYRQAPGKEREWVAFIQRGGTANYAESAKGRFTISRDNAKNTVYLQMSSLRAEDTAVYYCNYINTDNEIGGPWGQGTLVTVKPGGGG[human IgG1 Fc with changes not shown] | 0.00812 |  |
| humanized tetravalent Siglec-8 agonist antibody comprising hzG2v52, Fc SDIE (Fc fusion, Homodimer through the Fc; also called cx11913) EVQLLESGGGEVQPGGSLRLSCAASGSISIFSKYVVAWYRQAPGKEREWVAFIQRGGTANYAESAKGRFTISRDNAKNTVYLQMSSLRAEDTAVYYCNYINTDNEIGGPWGQGTLVTVEPGGSGGSEVQLLESGGGEVQPGGSLRLSCAASGSISIFSKYVVAWYRQAPGKEREWVAFIQRGGTANYAESAKGRFTISRDNAKNTVYLQMSSLRAEDTAVYYCNYINTDNEIGGPWGQGTLVTVEPGGGG[human IgG1 Fc with changes not shown] | 0.012 | ~8 |
| humanized tetravalent Siglec-8 agonist antibody comprising hzG2v47, Fc SDIE (Fc fusion, Homodimer through the Fc) EVQLLESGGGEVQPGGSLRLSCAASGSISIFSDYVVAWYRQAPGKEREWVAFIQRGGTANYAESAKGRFTISRDNAKNTVYLQMSSLRAEDTAVYYCNYINTDNEIGGPWGQGTLVTVRPGGSGGSEVQLLESGGGEVQPGGSLRLSCAASGSISIFSDYVVAWYRQAPGKEREWVAFIQRGGTANYAESAKGRFTISRDNAKNTVYLQMSSLRAEDTAVYYCNYINTDNEIGGPWGQGTLVTVRPGGGG[human IgG1 Fc with changes not shown] | 0.00888 |  |
| humanized tetravalent Siglec-8 agonist antibody comprising hzG2v54, Fc SDIE (Fc fusion, Homodimer through the Fc) QVQLLESGGGEVQPGGSLRLSCAASGSISIFSKYVVAWYRQAPGKEREWVAFIQRGGTANYAESAKGRFTISRDNAKNTVYLQMSSLRAEDTAVYYCNYINTDNEIGGPWGQGTLVTVEPGGSGGSQVQLLESGGGEVQPGGSLRLSCAASGSISIFSKYVVAWYRQAPGKEREWVAFIQRGGTANYAESAKGRFTISRDNAKNTVYLQMSSLRAEDTAVYYCNYINTDNEIGGPWGQGTLVTVEPGGGG[human IgG1 Fc with changes not shown] | 0.036 |  |

Next, values leading:

| Kd [1] [nM] | fold higher affinity than the 2E2 Afuc comparator antibody [2] [fold] | Binder |
| --- | --- | --- |
| 0.01 |  | humanized tetravalent Siglec-8 agonist antibody comprising hzG2v55, Fc SDIE (Fc fusion, Homodimer through the Fc) QVQLLESGGGEVQPGGSLRLSCAASGSISIFSDYVVAWYRQAPGKEREWVAFIQRGGTANYAESAKGRFTISRDNAKNTVYLQMSSLRAEDTAVYYCNYINTDNEIGGPWGQGTLVTVRPGGSGGSQVQLLESGGGEVQPGGSLRLSCAASGSISIFSDYVVAWYRQAPGKEREWVAFIQRGGTANYAESAKGRFTISRDNAKNTVYLQMSSLRAEDTAVYYCNYINTDNEIGGPWGQGTLVTVRPGGGG[human IgG1 Fc with changes not shown] |
| 0.013 | ~8 | humanized tetravalent Siglec-8 agonist antibody comprising hzG2v53, Fc SDIE (Fc fusion, Homodimer through the Fc; also called cx11914; tet-hzG2v53-SDIE) EVQLLESGGGEVQPGGSLRLSCAASGSISIFSKYVVAWYRQAPGKEREWVAFIQSGGTANYAESAKGRFTISRDNAKNTVYLQMSSLRAEDTAVYYCNYINTDNEIGGPWGQGTLVTVRPGGSGGSEVQLLESGGGEVQPGGSLRLSCAASGSISIFSKYVVAWYRQAPGKEREWVAFIQSGGTANYAESAKGRFTISRDNAKNTVYLQMSSLRAEDTAVYYCNYINTDNEIGGPWGQGTLVTVRPGGGG[human IgG1 Fc with changes not shown] |
| 0.119 |  | humanized tetravalent Siglec-8 agonist antibody comprising hzG2v51, Fc SDIE (Fc fusion, Homodimer through the Fc) EVQLLESGGGEVQPGGSLRLSCAASGSISIFSKYVVAWYRQAPGKEREWVAFIQRGGTANYAESAKDRFTISRDNAKNTVYLQMSSLRAEDTAVYYCNYINTDNEIGGPWGQGTLVTVRPGGSGGSEVQLLESGGGEVQPGGSLRLSCAASGSISIFSKYVVAWYRQAPGKEREWVAFIQRGGTANYAESAKDRFTISRDNAKNTVYLQMSSLRAEDTAVYYCNYINTDNEIGGPWGQGTLVTVRPGGGG[human IgG1 Fc with changes not shown] |
